# Data from the supplement of paper PMC11417369.
# ± gives the standard deviation of the averaged measurements. The list shows a part of the results.
# Tested on: PfAP2-G AP2 domain (GST-tagged)
# Experiment: gcPBM binding intensity (ln(normalized median fluorescence intensity)); higher = stronger DNA binding
# Summary of the method: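 Binding intensity is defined as the maximum Masliner-normalised natural-log median intensity across replicate spots for either probe orientation. It was measured on an Agilent 4 × 180k array of primer-extended double-stranded 36-bp intergenic genomic probes and negative controls, to which GST-tagged P. falciparum DNA-binding domains made in E. coli were applied for 1 h in 1× PBS with 1% milk, 0.2 mg/ml BSA, 0.5% salmon testes DNA and 0.03% Triton X-100. Detection was by Alexa488 anti-GST antibody and scanning at 488 nm.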
row,Sequence,gcPBM binding intensity (ln)
1,AAAAGATATATTATATGTACTAATTATATGATAAAT [XGTACX_site4192],11 ± 0.63
2,ATATAATGTTTCACATGTACAAACAACACAAAAAAA [XGTACX_site1899],10.9 ± 0.54
3,CATACACCCATACATACACACATACATATATATATA [CACACA_site8591],10.2 ± 0.11
4,GTTCTAAATATTATTGCATGTTGCACGTTTCTCTGT [TGCATGCA_site159],9.995 ± 0.007
5,GTGATAATTGCTTGGTGTACCCACATATATATATAT [XGTACX_site1636],11.6 ± 0.98
6,TTAAAAAAAGAAAAAAAAAAAAAAAAAAAAAAACAT [CACACA_negctrl_site475],9.705 ± 0.064
7,TATAAAAATATTTCTACACACATTAATATTTATATA [CACACA_site6661],9.835 ± 0.092
8,TATTATATTCTGCTTACACACATATATATATATATA [CACACA_site3060],10.4 ± 0.57
9,TTTTTAAATAATTGAAGTACACATTTCTCTAAGTTG [XGTACX_site2846],11.6 ± 1
10,AGTAAAAGAAAGCACACACACATGTATATAGGTATG [CACACA_site7759],10.21 ± 0.014
11,TAAAACATAAGAGACACACACACATATATATATATA [CACACA_site3643],10.3 ± 0.67
12,ATATTCTTTTTATGTGGTACTAATTTTTTTTTTTTA [XGTACX_site3791],11.2 ± 0.73
13,TTTTTAAAACATCACTGTACCCGTTATGGTGAACAT [XGTACX_site3483],11.7 ± 1.2
14,AAACATATAAACATATGTACATATAAACATATATAC [XGTACX_site5026],11 ± 0.46
15,CATGTATTTTATATTACACACTAATATTATAGATAT [CACACA_site6819],10.01 ± 0.021
16,TTTTTTTTTTTGTTTAAACACACGAGCTTTCTTCTT [CACACA_site4085],9.75 ± 0.042
17,TAAAAATTTTAATAAACACACAATGAGATATTGAAT [CACACA_site5704],9.66 ± 0.36
18,AGCAAATCAGATAGTAGTACATTTAAATTAGACTTT [XGTACX_site4172],11.3 ± 0.81
19,AGCATATTATCATATTGTACATATTATAATATATAT [XGTACX_site3907],10.9 ± 0.69
20,ATATGTTTTGTTTACGTGCACTGCTTTGTTTATATA [GTGCAC_site9622],10.4 ± 0.17
21,ATTTCTCAATCTTAATGTACAAAAAAAAGGAAAAAG [XGTACX_site1210],10.9 ± 0.54
22,CAAAATAAAAATAACACACACATTTATATATATACA [CACACA_site1190],9.86 ± 0.19

row,Sequence,gcPBM binding intensity (ln)
1,ATGAAATATCGGAACGCACACATAAATATATTTATA [CACACA_site2670],10.2 ± 0.23
2,TAGCTTATTAATATCATACACACATAGATATATTTA [CACACA_site3105],9.63 ± 0.25
3,CAATTTGGGGTGTACACACACCTTATTTAAATTAAA [CACACA_site6663],11.6 ± 0.98
4,TTGAACTCTCTTACGCGTACGTGTTATTATGAAAAT [XGTACX_site6265],11.3 ± 0.7
5,AACACAGATAAATTAACACACACACCCATATATATA [CACACA_site9310],9.99 ± 0.26
6,CACATATAGTTATATGCACACATCTTACACATCTAT [CACACA_site5937],10.2 ± 0.11
7,TATATATATATATGTGCATGTAATGATTCAGCATCT [TGCATGCA_site803],9.96 ± 0.2
8,TTTTATAAATTATAATTCTATTATCTGTTCTTTTTA [TGCATGCA_negctrl_site487],9.52 ± 0.3
9,CATACATACATACATACACACATACAGATATATATA [CACACA_site4890],10.6 ± 0.38
10,TCCTTATTACTTTTTTAAGTCGTAATGAAAGAAAAA [CACACA_negctrl_site1497],10 ± 0.27
11,ATCTTAACTCTATGCACACATAAAAGTATATAAATA [CACACA_site2256],10.2 ± 0.33
12,TTACATAATTTCTGCTGTACCAATTTTGAGAAGTTG [XGTACX_site4023],11.2 ± 0.71
13,AAAAGGAATATAATCATTCAAAAATATAATATATAT [GTGCAC_negctrl_site551],9.48 ± 0.085
14,ATGTAAATATATATATGTACTAATTAGTAGTTTACG [XGTACX_site6271],11.1 ± 0.74
15,ATCATGTTATATACATGTACATATATATATATATAA [XGTACX_site609],11 ± 0.52
16,ATCATCCAAGATCTTACACACATATTAAATAAATAA [CACACA_site1473],10 ± 0.13
17,TTTTATTTTTTTAAATGTACACATATTAATGTAAGG [XGTACX_site319],11.5 ± 1.1
18,TCTTCCCAAATAAAGTGTACATAAATACGAATAATA [XGTACX_site4363],11.4 ± 0.74
19,AAAATTAAAATATATACACACATATATATATTAAAT [CACACA_site4419],9.735 ± 0.021
20,ATCAAAGATAAATTTACACACATATATATATATATA [CACACA_site2969],10.1 ± 0.4
21,AAGATATTTGTATAATGTACAAAACTATATAAAACT [XGTACX_site1433],10.7 ± 0.26
22,TAATGTATATGTAAATGTACATGTATATTATTTAAA [XGTACX_site1840],11 ± 0.58
